Data on three molecules can be found in PMC4133157.

Protein sequences, listed by entry. Tags and fused reporters are not part of them. Residues count along the entry.
UniProt P34710, residues 22-612: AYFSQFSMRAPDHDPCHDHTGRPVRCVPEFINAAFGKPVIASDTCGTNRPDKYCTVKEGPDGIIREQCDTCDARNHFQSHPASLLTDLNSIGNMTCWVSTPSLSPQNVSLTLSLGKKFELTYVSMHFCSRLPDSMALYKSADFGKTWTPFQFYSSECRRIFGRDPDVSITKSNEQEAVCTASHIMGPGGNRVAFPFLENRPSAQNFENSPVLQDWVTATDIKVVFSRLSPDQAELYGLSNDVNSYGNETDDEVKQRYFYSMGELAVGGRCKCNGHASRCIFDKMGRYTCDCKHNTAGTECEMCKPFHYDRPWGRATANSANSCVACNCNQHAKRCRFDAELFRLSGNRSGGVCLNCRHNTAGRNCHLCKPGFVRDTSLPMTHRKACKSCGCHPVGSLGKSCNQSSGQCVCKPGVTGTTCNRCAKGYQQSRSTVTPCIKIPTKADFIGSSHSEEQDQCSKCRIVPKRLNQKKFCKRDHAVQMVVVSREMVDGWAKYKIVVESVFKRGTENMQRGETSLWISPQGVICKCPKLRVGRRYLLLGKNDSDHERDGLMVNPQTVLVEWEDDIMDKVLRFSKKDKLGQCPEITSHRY

Results are given in words; binding and its absence hold for the method and conditions named. Binding seen in cells or lysates may run through a third protein. Some results given as binding are weak or reduced against the parent protein; the word gives no strength. Sequences can lack the tags named with a protein.

Assay [1] has as its target T1, 3XFLAG::UNC-40 (HEK293T) (C. elegans) (UniProt G5EF96).
T1 sequence: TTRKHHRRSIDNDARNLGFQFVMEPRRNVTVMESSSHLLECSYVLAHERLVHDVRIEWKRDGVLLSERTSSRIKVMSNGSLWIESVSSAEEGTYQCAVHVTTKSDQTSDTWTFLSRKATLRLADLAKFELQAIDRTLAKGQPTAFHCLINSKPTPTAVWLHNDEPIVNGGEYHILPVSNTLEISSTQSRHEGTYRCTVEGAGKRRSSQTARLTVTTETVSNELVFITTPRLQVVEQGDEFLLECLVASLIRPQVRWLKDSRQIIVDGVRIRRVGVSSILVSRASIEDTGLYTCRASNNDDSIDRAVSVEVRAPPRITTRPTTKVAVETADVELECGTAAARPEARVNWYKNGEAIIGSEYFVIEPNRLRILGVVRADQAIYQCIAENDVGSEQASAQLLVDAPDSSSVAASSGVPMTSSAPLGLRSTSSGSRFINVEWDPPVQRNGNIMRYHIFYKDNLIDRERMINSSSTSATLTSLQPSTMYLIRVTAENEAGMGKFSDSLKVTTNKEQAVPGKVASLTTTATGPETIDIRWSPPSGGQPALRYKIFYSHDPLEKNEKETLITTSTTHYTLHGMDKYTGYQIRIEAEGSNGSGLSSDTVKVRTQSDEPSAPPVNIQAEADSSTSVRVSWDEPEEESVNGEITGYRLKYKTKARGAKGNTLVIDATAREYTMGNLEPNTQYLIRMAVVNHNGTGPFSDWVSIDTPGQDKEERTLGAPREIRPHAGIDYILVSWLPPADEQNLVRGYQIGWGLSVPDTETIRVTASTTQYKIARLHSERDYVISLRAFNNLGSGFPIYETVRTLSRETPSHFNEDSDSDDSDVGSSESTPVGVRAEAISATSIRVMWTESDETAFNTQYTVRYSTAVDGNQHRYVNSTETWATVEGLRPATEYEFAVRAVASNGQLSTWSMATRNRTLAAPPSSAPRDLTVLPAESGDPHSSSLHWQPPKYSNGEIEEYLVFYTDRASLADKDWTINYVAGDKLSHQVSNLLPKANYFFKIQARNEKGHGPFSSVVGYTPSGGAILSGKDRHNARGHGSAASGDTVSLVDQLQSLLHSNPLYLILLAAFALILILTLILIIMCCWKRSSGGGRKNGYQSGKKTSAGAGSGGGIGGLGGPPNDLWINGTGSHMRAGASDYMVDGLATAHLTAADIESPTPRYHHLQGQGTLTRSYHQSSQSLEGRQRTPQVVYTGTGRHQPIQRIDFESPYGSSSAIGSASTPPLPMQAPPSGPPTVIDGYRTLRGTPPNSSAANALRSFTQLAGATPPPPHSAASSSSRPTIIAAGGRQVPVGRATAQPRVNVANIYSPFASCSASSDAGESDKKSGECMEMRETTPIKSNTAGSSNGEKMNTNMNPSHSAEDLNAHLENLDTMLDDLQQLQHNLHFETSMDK
Kind of assay: co-IP; as a1, FLAG-tagged UNC-40 in HEK293 cells with co-expressed UNC-6, or UNC-6 and EVA-1; luciferase-tagged MADD-4 in the immunoprecipitate.

Assay [2] concerns the target T2, UNC-40::MYC::3XFLAG::YFP (C. elegans muscle) (C. elegans) (UniProt G5EF96).
T2 sequence: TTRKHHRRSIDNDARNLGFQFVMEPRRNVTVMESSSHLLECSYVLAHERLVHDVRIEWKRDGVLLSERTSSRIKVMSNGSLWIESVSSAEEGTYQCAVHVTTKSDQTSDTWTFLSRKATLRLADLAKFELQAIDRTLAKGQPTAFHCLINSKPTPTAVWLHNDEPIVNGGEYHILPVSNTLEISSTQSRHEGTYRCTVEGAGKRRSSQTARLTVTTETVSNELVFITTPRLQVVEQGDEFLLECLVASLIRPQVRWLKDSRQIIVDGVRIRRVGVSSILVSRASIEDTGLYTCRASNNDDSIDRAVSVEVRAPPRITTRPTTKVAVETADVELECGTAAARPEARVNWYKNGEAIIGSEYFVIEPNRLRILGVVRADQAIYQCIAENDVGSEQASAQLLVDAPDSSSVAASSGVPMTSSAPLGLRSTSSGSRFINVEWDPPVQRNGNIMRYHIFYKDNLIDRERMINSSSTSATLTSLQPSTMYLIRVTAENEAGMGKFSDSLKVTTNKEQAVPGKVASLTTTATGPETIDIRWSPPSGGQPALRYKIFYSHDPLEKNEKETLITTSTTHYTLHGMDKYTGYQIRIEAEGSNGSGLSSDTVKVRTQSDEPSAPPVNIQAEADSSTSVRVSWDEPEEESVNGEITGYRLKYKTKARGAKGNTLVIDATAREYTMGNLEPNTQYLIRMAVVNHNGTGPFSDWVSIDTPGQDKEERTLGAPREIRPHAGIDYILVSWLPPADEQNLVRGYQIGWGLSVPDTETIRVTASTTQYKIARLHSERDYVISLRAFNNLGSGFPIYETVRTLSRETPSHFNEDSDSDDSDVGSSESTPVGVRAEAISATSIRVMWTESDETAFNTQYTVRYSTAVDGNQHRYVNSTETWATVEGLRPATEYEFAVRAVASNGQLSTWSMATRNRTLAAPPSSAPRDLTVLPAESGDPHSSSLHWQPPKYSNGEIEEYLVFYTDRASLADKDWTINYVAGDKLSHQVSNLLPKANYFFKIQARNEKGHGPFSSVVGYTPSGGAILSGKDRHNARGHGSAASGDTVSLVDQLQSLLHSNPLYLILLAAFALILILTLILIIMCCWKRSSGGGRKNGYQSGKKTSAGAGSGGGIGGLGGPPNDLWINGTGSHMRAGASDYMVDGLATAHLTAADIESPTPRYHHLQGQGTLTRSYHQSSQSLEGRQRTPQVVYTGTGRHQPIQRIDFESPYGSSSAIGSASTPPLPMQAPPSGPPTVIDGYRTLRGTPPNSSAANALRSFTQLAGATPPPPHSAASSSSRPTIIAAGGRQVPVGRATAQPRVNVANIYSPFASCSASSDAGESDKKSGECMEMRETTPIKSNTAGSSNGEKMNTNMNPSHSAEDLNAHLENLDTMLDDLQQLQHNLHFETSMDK
Kind of assay: co-IP; lysate of transgenic worms with tagged proteins expressed in muscles (25 mM Tris pH 7.4, 100 mM NaCl, 1 mM EDTA, 0.25% NP40); anti-FLAG M2 agarose, 3 hrs at 4°C, western blot with anti-GFP. In general terms: In western blotting, separated proteins are transferred to a membrane and probed.

The target in assay [3] is T3, EVA-1::MYC::3XFLAG::CFP (C. elegans muscle) (C. elegans) (UniProt Q9XU98).
T3 sequence: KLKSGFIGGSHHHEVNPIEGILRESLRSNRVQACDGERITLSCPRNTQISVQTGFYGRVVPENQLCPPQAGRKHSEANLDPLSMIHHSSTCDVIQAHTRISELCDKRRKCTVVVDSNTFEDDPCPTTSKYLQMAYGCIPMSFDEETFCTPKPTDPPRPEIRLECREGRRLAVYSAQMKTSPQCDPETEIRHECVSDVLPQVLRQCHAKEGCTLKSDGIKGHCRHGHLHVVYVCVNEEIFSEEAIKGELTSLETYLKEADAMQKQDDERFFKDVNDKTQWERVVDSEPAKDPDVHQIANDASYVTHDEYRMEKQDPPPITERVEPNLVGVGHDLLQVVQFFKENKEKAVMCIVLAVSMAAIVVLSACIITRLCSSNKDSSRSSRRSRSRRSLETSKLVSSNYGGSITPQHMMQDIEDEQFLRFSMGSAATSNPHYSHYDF
The assay is described as above.

Consider “UNC-6 (co-expressed in HEK293 cells) (from UniProt P34710 22-612) (ligand)”, for which, in assay [1], the binding entry was “binds”.

B1: PAT-2::CFP (C. elegans muscle) (receptor, UniProt P34446 26-1226)
chain: FNIDTKNVVVHHMAGNYFGYSLDFYHEQKGMPVLVVGAPEAESNNPNLAGIRRPGAVYACSVNRATCREVHVDKMKGNLKKLNGSHLVPIEEKSHQFFGATVRSNDKHDKIVVCAPKYTYFYSKFEVIEPVGTCFYAENGFDNAEEFSSCKQEPARHGRHRLGYGQCGFSAAVPGKKNQNRVFIGAPGVWYWQGAMFSQNIKNQTDRPNTEYGSKEYDHDMMGYSTATGDFDGDGIDDIVAGVPRGNDLHGKLVLYTSKLKMMINLTDEVSTQHGQYCGGSVAVADVNKDGRDDIIMGCPFYTDYGSVKDAKTQERKPQYDVGKVIVMLQTAPGVFGKQIAVVGDDQWGRFGHAVAAAGDLNLDGYNDVIVGAPYAGKNKQGAVYVIHGSKDGVRELPTQKIEGANIGHGNIKSFGFSLTGNEDVDGNGMPDIAVGAWKSGNAAVLLTKPVVTVTGQTEPESALISVEDKNCDVDGKLGKQACKHINTCFKYEGKGDTPNDLEFDLRFNLDDHSPEPRAYFLQKDVKSDRSIKVAQGSKTRDHPSSIEQRVRLEKGRQKCFRHRFFASSTMKDKLSPIHWSVNYTYVESKTGKLRGDKLEPAIDTTVPLSFQNKINIANNCGKDDLCVPDLKVTAVADREKFLLGTQDNTMLINVTVQNGGEDSYETKLYFDVPQGFEYGGIESVGGDGSKSAPACSPTSDEPDSDGKWTFACDLGNPLPANKVVSSVVRVTASSDKPPLAPISINAHVNSSNDEEAHTVADNKVTFTIPVDFKNQLSLNGRSNPEQVDFSMTNKTRVDAFDDNEIGPVVSHLYQISNRGPSEVDSATLDIFWPSFSTEGGHLLYIITEPVVNPPNKGRCRVKQLQNVNPLNLRITNEHVPTEPPVAKTPNEYSREEDDESYEDETTTQSQSTRHQSTQHQTHHQSGPVHVYEKDEEKIRQNTGNWQYVEDKKKKGDYEYIPDDQEYDGDDFEEEDDEDFDRAGSKRVKRNPTPKKKKKGGEHRGEPRSDKARFSDLREAVKLSKEAGGVVDYKGPLSRASVDCNSLRCTHIECDIYDLKEDEFVLVEIFSRLYTNTLVDEKNPGGDISSLALARVTSTKYNLPHKPTLITAVSTNMNAIASEEGRDLPWWLYLLAILIGLAILILLILLLWRCGFFKRNRPPTEHAELRADRQPNAQYADSQSRYTSQDQYNQGRHGQML
Take B1: the binding result in assay [2] and in assay [3] was “no binding” each time.

B2: UNC-40::YFP (C. elegans muscle) (receptor, UniProt G5EF96 23-1415)
chain: TTRKHHRRSIDNDARNLGFQFVMEPRRNVTVMESSSHLLECSYVLAHERLVHDVRIEWKRDGVLLSERTSSRIKVMSNGSLWIESVSSAEEGTYQCAVHVTTKSDQTSDTWTFLSRKATLRLADLAKFELQAIDRTLAKGQPTAFHCLINSKPTPTAVWLHNDEPIVNGGEYHILPVSNTLEISSTQSRHEGTYRCTVEGAGKRRSSQTARLTVTTETVSNELVFITTPRLQVVEQGDEFLLECLVASLIRPQVRWLKDSRQIIVDGVRIRRVGVSSILVSRASIEDTGLYTCRASNNDDSIDRAVSVEVRAPPRITTRPTTKVAVETADVELECGTAAARPEARVNWYKNGEAIIGSEYFVIEPNRLRILGVVRADQAIYQCIAENDVGSEQASAQLLVDAPDSSSVAASSGVPMTSSAPLGLRSTSSGSRFINVEWDPPVQRNGNIMRYHIFYKDNLIDRERMINSSSTSATLTSLQPSTMYLIRVTAENEAGMGKFSDSLKVTTNKEQAVPGKVASLTTTATGPETIDIRWSPPSGGQPALRYKIFYSHDPLEKNEKETLITTSTTHYTLHGMDKYTGYQIRIEAEGSNGSGLSSDTVKVRTQSDEPSAPPVNIQAEADSSTSVRVSWDEPEEESVNGEITGYRLKYKTKARGAKGNTLVIDATAREYTMGNLEPNTQYLIRMAVVNHNGTGPFSDWVSIDTPGQDKEERTLGAPREIRPHAGIDYILVSWLPPADEQNLVRGYQIGWGLSVPDTETIRVTASTTQYKIARLHSERDYVISLRAFNNLGSGFPIYETVRTLSRETPSHFNEDSDSDDSDVGSSESTPVGVRAEAISATSIRVMWTESDETAFNTQYTVRYSTAVDGNQHRYVNSTETWATVEGLRPATEYEFAVRAVASNGQLSTWSMATRNRTLAAPPSSAPRDLTVLPAESGDPHSSSLHWQPPKYSNGEIEEYLVFYTDRASLADKDWTINYVAGDKLSHQVSNLLPKANYFFKIQARNEKGHGPFSSVVGYTPSGGAILSGKDRHNARGHGSAASGDTVSLVDQLQSLLHSNPLYLILLAAFALILILTLILIIMCCWKRSSGGGRKNGYQSGKKTSAGAGSGGGIGGLGGPPNDLWINGTGSHMRAGASDYMVDGLATAHLTAADIESPTPRYHHLQGQGTLTRSYHQSSQSLEGRQRTPQVVYTGTGRHQPIQRIDFESPYGSSSAIGSASTPPLPMQAPPSGPPTVIDGYRTLRGTPPNSSAANALRSFTQLAGATPPPPHSAASSSSRPTIIAAGGRQVPVGRATAQPRVNVANIYSPFASCSASSDAGESDKKSGECMEMRETTPIKSNTAGSSNGEKMNTNMNPSHSAEDLNAHLENLDTMLDDLQQLQHNLHFETSMDK
In the case of B2, in assay [3], the binding result is “binds”.
